This is one part of the list. These are noisy estimates, calculated here from bound and input reads.
The sequences below were run against T1, Pho4 (S. cerevisiae) (UniProt P07270) (assay: relative binding free energy (BET-seq); higher = weaker binding). Conditions: reference: library average.
T1 sequence: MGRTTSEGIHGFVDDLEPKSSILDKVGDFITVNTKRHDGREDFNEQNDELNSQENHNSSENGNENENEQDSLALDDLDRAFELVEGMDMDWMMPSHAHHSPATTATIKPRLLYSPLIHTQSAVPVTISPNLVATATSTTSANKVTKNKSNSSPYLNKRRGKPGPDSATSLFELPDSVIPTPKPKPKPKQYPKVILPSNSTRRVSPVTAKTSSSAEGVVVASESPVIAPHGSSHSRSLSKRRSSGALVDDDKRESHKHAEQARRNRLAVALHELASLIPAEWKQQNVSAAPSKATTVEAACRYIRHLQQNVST

Row | Sequence | relative binding free energy
1 | TTAGTCACGTGTCAAG | 0.06 kcal/mol
2 | TGTTGCACGTGTATAT | 0.05 kcal/mol
3 | TAGAGCACGTGCGGTC | 0 kcal/mol
4 | TGCAACACGTGTGTTT | -0.07 kcal/mol
5 | GTGAGCACGTGGTACG | -0.23 kcal/mol
6 | GTTAGCACGTGAGCTA | 0.24 kcal/mol
7 | ATCATCACGTGTTGGT | 0.08 kcal/mol
8 | ACTTGCACGTGGGTGG | -0.14 kcal/mol
9 | TTAGGCACGTGGACAG | 0.06 kcal/mol
10 | TTTTTCACGTGAAAGC | 0.38 kcal/mol
11 | TGGTCCACGTGCATGG | -0.03 kcal/mol
12 | TCTATCACGTGGTAGA | 0.2 kcal/mol
13 | TGTAACACGTGGCGAG | 0 kcal/mol
14 | TGGTCCACGTGGTTGT | -0.04 kcal/mol
15 | AGACACACGTGGTTGT | -0.04 kcal/mol
16 | GCTAGCACGTGTTGGG | -0.03 kcal/mol
17 | GGTGGCACGTGATCAG | -0.03 kcal/mol
18 | GTGTGCACGTGGTCCT | -0.12 kcal/mol
19 | TTATTCACGTGGACTG | 0.08 kcal/mol
20 | TTAATCACGTGTCATT | 0.04 kcal/mol
21 | AGGTACACGTGGCGTG | -0.04 kcal/mol
22 | CTTAGCACGTGTAGTT | 0.02 kcal/mol
23 | GTGTACACGTGTGCTA | 0.08 kcal/mol

Row | Sequence | relative binding free energy
24 | CCGGTCACGTGAGGTT | 0.31 kcal/mol
25 | GTGAACACGTGTTGTA | 0.05 kcal/mol
26 | GTTGGCACGTGTTGAT | 0.03 kcal/mol
27 | AGAGACACGTGTTTGT | -0.09 kcal/mol
28 | TGGCGCACGTGTAAAG | 0.06 kcal/mol
29 | ATAGGCACGTGTTTTA | -0.22 kcal/mol
30 | TTGGCCACGTGATGGT | 0.12 kcal/mol
31 | GGTTACACGTGGCATG | 0.09 kcal/mol
32 | AGAGGCACGTGGCAGT | -0.27 kcal/mol
33 | TACAACACGTGGGGTT | -0.23 kcal/mol
34 | ACAGTCACGTGGGTTG | -0.09 kcal/mol
35 | AAGTACACGTGTTGAA | 0.06 kcal/mol
36 | GGGCACACGTGAAGTG | 0.26 kcal/mol
37 | GGGGGCACGTGTTTGG | -0.02 kcal/mol
38 | GAATGCACGTGGGGTT | 0.06 kcal/mol
39 | AGGTTCACGTGGTCAA | 0.24 kcal/mol
40 | TGCGGCACGTGGTAAG | -0.18 kcal/mol
41 | GTATGCACGTGACGTT | 0.03 kcal/mol
42 | CAATTCACGTGTTTTG | 0.3 kcal/mol
43 | TTGTGCACGTGACGTT | 0.07 kcal/mol
44 | TTGGCCACGTGACAGG | 0.11 kcal/mol
45 | TGTATCACGTGCGTGC | 0.06 kcal/mol
46 | GTGCGCACGTGCGCGG | -0.26 kcal/mol

Row | Sequence | relative binding free energy
47 | TTTTCCACGTGGGCAG | 0.01 kcal/mol
48 | TATAGCACGTGAGGAC | 0.3 kcal/mol
49 | TTTAACACGTGTATTT | 0.02 kcal/mol
50 | TTTTGCACGTGCCTTG | -0.2 kcal/mol
51 | AAGCTCACGTGGGTGA | 0.12 kcal/mol
52 | TCTGTCACGTGTCTGG | 0.05 kcal/mol
53 | GCTGGCACGTGGTAAT | -0.11 kcal/mol
54 | GTGCGCACGTGTTCGG | -0.21 kcal/mol
55 | TGGGTCACGTGGGAGC | 0.08 kcal/mol
56 | GGAGTCACGTGTATGC | 0.14 kcal/mol
57 | TGGTACACGTGATCTT | 0.11 kcal/mol
58 | GATTTCACGTGCTTGT | 0.19 kcal/mol
59 | GAAAGCACGTGTATGT | 0.01 kcal/mol
60 | CTTAGCACGTGTGGGG | -0.09 kcal/mol
61 | AAGTTCACGTGAATTT | 0.39 kcal/mol
62 | TTTTGCACGTGTATTG | 0.08 kcal/mol
63 | ATCGTCACGTGCAGGT | 0.05 kcal/mol
64 | TATTTCACGTGAATAA | 0.32 kcal/mol
65 | GGCGTCACGTGTTGGC | 0.17 kcal/mol
66 | TTAGTCACGTGAGCTT | 0.24 kcal/mol
67 | ACATTCACGTGTATGG | 0.21 kcal/mol
68 | GGATGCACGTGTGGGA | 0.11 kcal/mol
69 | TTGGTCACGTGCGGTT | 0.14 kcal/mol

Row | Sequence | relative binding free energy
70 | TTCGCCACGTGTTGGG | -0.19 kcal/mol
71 | TTTGGCACGTGATAGT | 0.1 kcal/mol
72 | TGAGTCACGTGACAGG | 0.14 kcal/mol
73 | GTAGGCACGTGGTGAT | -0.09 kcal/mol
74 | TATGGCACGTGCTGGC | -0.01 kcal/mol
75 | CGGTTCACGTGTCGGA | 0.31 kcal/mol
76 | GTAAGCACGTGAGTAT | 0.12 kcal/mol
77 | TTGGGCACGTGAAATA | 0.27 kcal/mol
78 | ATAGGCACGTGAACGG | 0.01 kcal/mol
79 | CGGCGCACGTGTGAAG | 0.13 kcal/mol
80 | TGAGGCACGTGTAGCG | -0.11 kcal/mol
81 | GTTGGCACGTGCAAGT | -0.09 kcal/mol
82 | ACGTACACGTGGGGAG | -0.1 kcal/mol
83 | GTTGACACGTGGTTAC | 0.03 kcal/mol
84 | TTGGCCACGTGTTGGT | 0.06 kcal/mol
85 | CTAAGCACGTGGGGTA | -0.21 kcal/mol
86 | CATTGCACGTGGAGGG | -0.05 kcal/mol
87 | ATTGACACGTGAGGAG | 0.06 kcal/mol
88 | ATGGTCACGTGGATTA | 0.16 kcal/mol
89 | CGGAACACGTGCGGGG | -0.13 kcal/mol
90 | CGCGGCACGTGATGGA | -0.03 kcal/mol
91 | AACTGCACGTGTGTGG | -0.12 kcal/mol
92 | CGGGGCACGTGGGGGT | -0.32 kcal/mol

Row | Sequence | relative binding free energy
93 | TCGGTCACGTGGGATG | -0.09 kcal/mol
94 | ATGTTCACGTGTGGGG | 0.27 kcal/mol
95 | ACGGCCACGTGGTGGG | -0.27 kcal/mol
96 | GCCTTCACGTGGGGGT | 0.19 kcal/mol
97 | GCATGCACGTGGATGT | -0.03 kcal/mol
98 | GAAGACACGTGGTATG | -0.02 kcal/mol
99 | GGTAGCACGTGTCTAT | 0.01 kcal/mol
100 | GTAATCACGTGCCGTG | 0.18 kcal/mol
101 | CTGTGCACGTGATTTA | 0.02 kcal/mol
102 | TATATCACGTGATGTC | 0.31 kcal/mol
103 | AGTTGCACGTGTGACG | -0.01 kcal/mol
104 | GTGGACACGTGGGCGA | -0.13 kcal/mol
105 | ATTACCACGTGGTGGG | -0.15 kcal/mol
106 | AGGGCCACGTGTAGGT | -0.01 kcal/mol
107 | TGAGTCACGTGTGATT | 0.11 kcal/mol
108 | ATGAGCACGTGGTCGG | -0.34 kcal/mol
109 | TTGGACACGTGTTTGT | 0 kcal/mol
110 | GGCTGCACGTGGATAG | -0.07 kcal/mol
111 | TGTTGCACGTGGTCGT | -0.11 kcal/mol
112 | GTGGCCACGTGGGGTT | -0.23 kcal/mol
113 | TTGGCCACGTGATGCG | 0.01 kcal/mol
114 | AAGTACACGTGATGGT | 0.2 kcal/mol
115 | TAGTGCACGTGTGATA | -0.04 kcal/mol

— the BET-seq Pho4 binding data (Le et al. 2018)
